This note sets out measurements from patent US20170304437A1 (ALLIGATOR BIOSCIENCE, published 2017).

B1: human CTLA4-Fc (Fitzgerald #30R-CD152) (Fc fusion)
chain: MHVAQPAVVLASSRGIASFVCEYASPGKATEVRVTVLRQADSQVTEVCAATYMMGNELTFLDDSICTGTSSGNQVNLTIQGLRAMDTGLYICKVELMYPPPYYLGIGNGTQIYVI
notes: Bought reagent; also called biotinylated-CTLA4; human CTLA-4 (Fitzgerald); not shown: Fc part of the bought fusion
B2: Bispecific polypeptide 1134/1141 (bispecific antibody)
light: not shown
heavy: EVQLLESGGGLVQPGGSLRLSCAASGFTFSSYAMSWVRQAPGKGLEWVSSIYSGGGGTSYADSVKGRFTISRDNSKNTLYLQMNSLRAEDTAVYYCARGPAYSSFFDYWGQGTLVTVSS[human IgG1 constant region not shown]

Experiment [1] concerns the target Bispecific polypeptide 1140/1141. The experiment can be described thus: inhibition ELISA: 1140/1141 pre-incubated with titrated soluble human CTLA4-Fc, mixture added to coated human CTLA-4 (competitor).
The next experiment addresses T1, CD40-Fc (R&D #1493-CD) (human, UniProt P25942 partial chain).
T1 construct: Bought reagent immobilised on the Biacore chip; also called human CD40; not shown: Fc part of the bought fusion
Briefly: Biacore SPR, immobilised CD40-Fc (protocol of Example 7). On the procedure:
CD40-Fc (R&D #1493-CD) was immobilized to the BIAcore sensorship, CMS, using conventional amine coupling. 0.5 uM Bispecific construct (957/530) was injected over immobilized CD40 for 3 minutes and the dissociation was followed for 3 minutes. 2.17 uM CTLA4-Fc (Orencia, Bristol-Mayers Squibb) was injected over the CD40-Bispecific complex for 3 minutes and the dissociation phase was followed for 3 minutes. The chip was finally regenerated using 10 mM Glycine, pH 1.7. A Biacore 3000 instrument was used according to the manufacturer's protocols.
The six different exemplary bispecific polypeptides from Example 13 were tested for their ability to bind to both CD40 and CTLA-4. This was assessed by Surface Plasmon Resonance using the same protocol as in Example 7 above.
In general terms: SPR reads the build-up and loss of mass on a sensor chip optically.

Experiment [2] addresses T2, CD40-Fc (Ancell # 504-820) (human, UniProt P25942 partial chain).
T2 construct: Bought reagent; also called human CD40; not shown: Fc part of the bought fusion
Briefly: binding ELISA on coated CD40-Fc (protocol of Example 7), sample titrated, anti-human IgG Fc-HRP. For orientation: An ELISA detects its analyte on a solid surface through an enzyme-linked reagent.

For experiment [3], the target named is B1. The experiment can be described thus: binding ELISA on coated CTLA4-Fc (protocol of Example 7), sample titrated, anti-human IgG Fc-HRP.

Sequence of CD40-Fc (R&D #1493-CD) (P25942 21-193 limits assumed): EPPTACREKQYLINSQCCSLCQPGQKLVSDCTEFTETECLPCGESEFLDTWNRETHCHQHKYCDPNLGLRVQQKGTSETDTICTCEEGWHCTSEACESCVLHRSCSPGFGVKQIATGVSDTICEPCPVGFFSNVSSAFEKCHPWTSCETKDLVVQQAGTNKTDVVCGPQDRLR

As for B1, the “IC50 (read off the curve)” value in experiment [1] is about 1 mg/L.

The Kd is the free concentration of one partner at which half of the binding sites on the other are occupied at equilibrium, for simple one-to-one binding. A lower Kd goes with a tighter complex. As usually defined, the koff is a measure of how fast the partners let go of each other. The low end stands for a long-lived complex, the high end for a short-lived complex. In general, kon refers to the second-order rate constant of association. Read a low kon as slow association. The EC50 (read off the curve) is the concentration that produces a half-maximal response. In the experiment with CD40-Fc (R&D #1493-CD), B2 came in with a dissociation constant (Kd) of 14.1 nM, a dissociation rate constant (koff) of 0.00189 s⁻¹ and an association rate constant (kon) of 134000 M⁻¹ s⁻¹. Also, in experiment [2], the “EC50 (read off the curve)” value is about 0.9 nM. Also, the “EC50 (read off the curve)” value in experiment [3] was about 0.02 mg/L.
